According to the RNAGym collection of RNA variant scans (doi:10.1073/pnas.2313332121):
Variants at the background level are over-represented here.

B1: TPR 5TU (parent)
chain: GGAUCUUCUCGAUCUAACAAAAAAGACAAAUCUGCCACAAAGCUUGAGAGCAUCUUCGGAUGCAGAGGCGGCAGCCUUCGGUGGCGCGAUAGCGCCAACGUUCUCAACUAUGACACGCAAAACGCGUGCUCCGUUGAAUGGAGUUUAUCAUG

Variants of: B1
Experiment: polymerase ribozyme fitness, log enrichment relative to wild type (log ratio); higher = more active; in vitro selection for triplet polymerase activity
How it was run: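 To select mutant libraries of each subunit of a heterodimeric triplet polymerase ribozyme, built by PCR and transcribed, each was annealed with a biotinylated primer, partner subunit and triplets, then incubated frozen at −7 °C. Extended constructs were gel-excised, captured on streptavidin beads and amplified by RT-PCR, in one round carried out in triplicate. Illumina sequencing of input and output libraries kept genotypes with ≥10 input reads and ≥1 read per output. Fitness is the base-2 logarithm of genotype enrichment relative to wild-type enrichment, from inverse-variance-weighted replicate averages.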

| Variant | polymerase ribozyme fitness (log ratio) |
| --- | --- |
| GGAUCUUCUCGAUCUAACUAAAAAGACAAAUCUGCCACAAAGCUUGAGAGCAUCUUCGGAUGCAGAGGCGGCAGCCAUCGGUGCAGCGAUAGCGCCAACGUUCUCAACUAUGACACGCAAAACGCGUGCUCCGUUGAAUGGAGAUUAUCAUG [A19U U77A G84C C85A U144A] | ≤ -4.2 |
| GGAUCUUCUCGAUCUAACACAACAGAGAAAUCUGCCAUAAAGCUUGAGAGCAUCUUCGGAUGCAGAGGCGGCAGCCUUCGGUGGCGCGAUAGCGCCAACGUUGUCAACUAUGACACGCAAAACGCGUGCUCCGUUGAAUGGAGUGCAUCAUG [A20C A23C C27G C38U C103G U145G U146C] | ≤ -4.2 |
| GGAUCUUCUCGAUCUAACUAAAAAGACAAAUCUGCCACAAAGCUUGAGAGCAUCUUCGGAUGCAGAGGCGGCAGCCUUCGGUGGCGCGAUAGCGCCAACGUUCUCAACUAUGACACGCAAAACGCGUGCUCCGUUGAAUGGAGAUUAUCAUG [A19U U144A] | -0.138 |
| GGAUCUUCUCGAUCUAACACUAAAGACAAAUCUGCCACAAAGCUUGAAAGUAUCAUCGGAUGCAGAGGCGGCAGCCUUCGGUGGUGCGAUAGCGCCAACGUUCUCAACUAUGACACGCAAAACGCGUGCUCCGUUGAAUGGAGUUUAUCAGG [A20C A21U G48A C51U U55A C85U U151G] | ≤ -4.2 |
| GGAUCUUCUCGAUCUAACACAACAGACAAAUCUGACACAAAGGUUGAGAGCAUCUUCGGAUGCAGAGGCGGCAGCCUUCGGUGGCGCGAUAGGGCCAACGUUCUCGACUAUGACACGCAAAACGCGUGCUCCGUUGAAUGGAGUUUAUCAUG [A20C A23C C35A C43G C93G A106G] | ≤ -4.2 |
| GGAUCUUCUCGAUCUAACUAAAAAGACAAAUCUGCCACAAAGCUUGAGAGCAUCUUCGGAUGCAGAGGCGGCAGCCUUCGGCGGCGCGAUAGCGCCAACGUUGUCAACUAUUACACGCAAAACGCGUGCUCCGUUGAAUGGAGUUUAUCAUG [A19U U82C C103G G112U] | ≤ -4.2 |
| GGAUCUUCUCGAUCUAACACGAAAGACAAAUCUGCCACAAAGCUUGAAAGCAUAUUCGGAUGCAGAGGCGGCAGCCUUCGGUGGCGCGAUAGCGCCAACGUUCUCAACUAUGCCACGCAAAACGCGUGCUCCGUUGAAUGGAGUUUCUCAUG [A20C A21G G48A C54A A113C A147C] | ≤ -4.2 |
| GGAUCUUCUCGAUCUAACACUAAAGACAAAUCUGCCACAAAGCUUGAGAGCAUCAUCGCAUGCAGAGGCGGCAGCCUUCGGUGGAGCGAUAGCGCCAACGUUCUCAACUAUGACACGCAAAACGCUUGCUCCGUUGAAUGGAGUUUAUCAUG [A20C A21U U55A G59C C85A G126U] | -0.602 |
| GGAUCUUCUCGAUCUAACACCAAAGACAAAUCUGCCACAAACCUUGAGAGUAUCUACGGAUGCAGAGGCGGCAGCCUUCGGUGGCGCGAUAGCGCCAACGUUCUCAACUAUGACACGCAAAUCGCGUGCUCCGUUGAAUGGAGUUUAUCAUU [A20C A21C G42C C51U U56A A122U G152U] | ≤ -4.2 |
| GGAUCUUCUCGAUCUAACUAAAAAGACAAAUCUGCCACAAAGCUUGAGAGCAUCGUCGGAUGCAGAGGCGGCAGCCUUCGGUGGCUCGAUAGCGCCAACGUUCUCAACUAUGACACGCAAAACGCGUGCUCCGUUGAAUGGAGUUUAUCAUG [A19U U55G G86U] | -1.7 |
| GGAUCUUCUCGAUCUAACUAAAAAGACAAAUCUGCCACAAAGCUUGAGAGCAUCUACGGAUGCAGAGGCGGCGGCCUUCGGUGGGGCGAUAGCGCCAACGUUCUCAACUAUGACACGCAAAACGCGUGCUCCGUUCAAUGGAGUUUCUCAGG [A19U U56A A73G C85G G136C A147C U151G] | ≤ -4.2 |
| GGAUCUUCUCGAUCUAACACACAAGACAAAUCUGCCACGAAGCUUGAGAGCAUCUUCGGAUGCAGAGGCGACAGCCUUCGGUGGAGCGAUAGCCCCAACGUUCUCAACUAUGACACGCAAAACGCGUGCUCCGUUGAAUGGAGUUUAUCAUG [A20C A22C A39G G71A C85A G94C] | ≤ -4.2 |
| GGAUCUUCUCGAUCUAACACAGAAGACAAAUCUGCCACAAAGCUUGAGAGCAUCUUCGGAUGCAGAGGGGGCGGCCUGCGGUGGCGCGAUAGCGCCAACGUGCUCAACUAUGACACGCAAAACGCGUGCUCCGUUGAAUGGAGUUUAUCAUG [A20C A22G C69G A73G U78G U102G] | ≤ -4.2 |
| GGAUCUUCUCGAUCUAACACAUAAAACAAAUCUGCCACAAAGCUUGAGAGCAUCUUCGGAAGCAGAGGCGGCAGCCUUCGGUGGCGCGCUAGCGCCGACGUUCUCAACUAUGACACGCAAAACGCGUGCUCUGUUGAAUGGAGUUUAUCAUG [A20C A22U G25A U61A A89C A97G C132U] | ≤ -4.2 |
| GGAUCUUCUCGAUCUAACACAUAAGACAAAUCUGCCACAAAGCUUGAGAGCAUCUUCGGAUGCAGAGGCGGCAGCCUUCGGUGUCGCGAUCGCGCCAACGUUCUCAACUAUGACAAGCAAAACGCGUGCUCCGUUGAAUGGAGUUUAUCAUG [A20C A22U G84U A91C C116A] | ≤ -4.2 |
| GGAUCUUCUCGAUCUAACACACAAGACAAAUCUGCCACAAAGCUUGAGAGCAUCUUCGGCUGCAGAGGCGGCAGCCUUCGGUGGCGUCAUAGCGCCAACGUCCUCAACUAUGACACGCAAAACGCGUGCUCCGUUGAAUGGAGUUUUUCAUG [A20C A22C A60C C87U G88C U102C A147U] | ≤ -4.2 |
| GGAUCUUCUCGAUCUAACUAAAAAGACAAAUCUGCCACAAAGCUUGAGAGCAUCUUCGGAAGCAGAGGCGGCAGGCUUCGGUGGCGCGAUAGCGCCAACGUUCUCAAAUAUGACACGCAAAACGCGUGCUCCGUUGAAUCGAGUUUAUCAUG [A19U U61A C75G C108A G140C] | ≤ -4.2 |
| GGAUCUUCUCGAUCUAACACAUAAGACAAAUCUGCCACAGAGCUUGAGAGCAUCUUCGGAUGCAGAGGCGGCAGCCUUCGGUGGCGCGAUAGGGUCAACGUUCUGAACUAUGACACGCAAAACGCGUGCUCCGUUGAAUGGAGUUUAUCAUG [A20C A22U A40G C93G C95U C105G] | ≤ -4.2 |
| GGAUCUUCUCGAUCUAACUAAAAAGACAAAUCUGCCACAAAGCUUGAGAGCAUCGUCGGAUGCAGAGGCGGCAGCCUUCGGUGGGGCGAUAGCGCUAACGUUCUCAACUAUGACAAGCAAAACGCGUGCUCCGUUGAAAGGAGUUUAUCAUG [A19U U55G C85G C96U C116A U139A] | ≤ -4.2 |
